Results as given in PMC3912163.
Numbering of substitutions follows the chain as printed. Numbers in names are those of the source. Read-outs that look alike come from different tables or passages of the source. Results are given in words; binding and its absence hold for the method and conditions named. Some results given as binding are weak or reduced against the parent protein; the word gives no strength. Blank lines part the entries; values can stand above or below the molecule they belong to.

The chains behind the UniProt entries cited, without tags or fusion partners.
UniProt Q94A79: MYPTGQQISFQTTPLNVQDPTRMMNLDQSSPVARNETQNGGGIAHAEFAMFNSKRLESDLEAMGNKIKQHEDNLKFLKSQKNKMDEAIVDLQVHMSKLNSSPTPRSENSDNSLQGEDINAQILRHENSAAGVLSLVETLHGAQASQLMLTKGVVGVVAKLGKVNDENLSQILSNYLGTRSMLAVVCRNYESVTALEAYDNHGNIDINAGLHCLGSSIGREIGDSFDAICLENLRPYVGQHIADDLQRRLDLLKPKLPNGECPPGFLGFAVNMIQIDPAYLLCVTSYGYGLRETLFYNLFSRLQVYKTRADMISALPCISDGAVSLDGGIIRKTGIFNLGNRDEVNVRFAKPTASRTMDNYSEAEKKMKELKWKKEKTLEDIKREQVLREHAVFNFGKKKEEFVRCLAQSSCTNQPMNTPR

Legend:
Test in all cases: two-hybrid; yeast reporter strain Hf7c (Clontech); growth on SD-WLH with 10 mM 3-amino-1,2,4-triazole (His3 reporter) and beta-galactosidase activity with ONPG
[1] = molecular target: … IN MERISTEM …3 (DMS3) (Arabidopsis thaliana) (UniProt Q94A79)
[2] = molecular target: RNA-DIRECTED DNA …ON1/… IN MERISTEM … 7 (RDM1), wild type (Arabidopsis thaliana) (UniProt Q9LUJ3)
[3] = molecular target: … IN MERISTEM …3 (DMS3) (Arabidopsis thaliana) (UniProt Q94A79); remark: listed apart in the source
[4] = molecular target: rdm1-d1d2 (RDM1 L128R, I132R) (Arabidopsis thaliana) (UniProt Q9LUJ3)
[5] = molecular target: rdm1-p1p2 (RDM1 Y51A, Y54A) (Arabidopsis thaliana) (UniProt Q9LUJ3)
[6] = molecular target: rdm1-M50A (RDM1 M50A) (Arabidopsis thaliana) (UniProt Q9LUJ3)

B1: RNA-DIRECTED DNA …ON1/… IN MERISTEM … 7 (RDM1), wild type (protein, UniProt Q9LUJ3 1-163)
chain: MQSSMTMELRPSGDSGSSDVDAEISDGFSPLDTSHRDVADEGSLLRRAEMYQDYMKQVPIPTNRGSLIPFTSWVGLSISMKQLYGQPLHYLTNVLLQRWDQSRFGTDSEEQRLDSIIHPTKAEATIWLVEEIHRLTPSHLHMALLWRSDPMYHSFIDPIFPEK
binding [2]: binds | binding [3]: binds

B2: rdm1-d1d2 (RDM1 L128R, I132R) (protein, UniProt Q9LUJ3 1-163)
chain: B1 chain with L128R, I132R
binding [4]: no binding | binding [3]: binds

B4: rdm1-M50A (RDM1 M50A) (protein, UniProt Q9LUJ3 1-163)
chain: B1 chain with M50A
binding [3]: binds | binding [6]: binds

Next, values leading:

binding [1]: binds
Molecule: … IN MERISTEM …3 (DMS3) (from UniProt Q94A79 1-420)

binding [5]: no binding | binding [3]: no binding
B3: rdm1-p1p2 (RDM1 Y51A, Y54A) (protein, UniProt Q9LUJ3 1-163)
chain: B1 chain with Y51A, Y54A
